Data taken from patent US20230050440A1 (Seagen, published 2023).

Molecular target: T1, human high affinity FcγRIIIa V/V receptor expressed on CHO cells (human, UniProt P08637)
T1 construct: whole, on cells
Experiment: flow cytometry on CHO cells transfected with human FcγRIIIa 158V (CHO/hCD16), fluorescent anti-human Fc secondary antibody

T1 sequence (P08637 17-254 F176V): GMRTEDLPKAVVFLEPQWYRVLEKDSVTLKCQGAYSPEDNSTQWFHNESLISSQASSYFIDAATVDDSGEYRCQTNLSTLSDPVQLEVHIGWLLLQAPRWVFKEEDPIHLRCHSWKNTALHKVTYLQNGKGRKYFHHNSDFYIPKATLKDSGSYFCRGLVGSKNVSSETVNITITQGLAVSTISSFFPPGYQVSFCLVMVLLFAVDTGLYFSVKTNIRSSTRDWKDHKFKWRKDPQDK

B1: clone 13 IgG1 DLE (antibody)
heavy: QVQLVQSGAEVKKPGSSVKVSCKASGGTFSSYAISWVRQAPGQGLEWMGSIIPIFGTANYAQKFQGRVTITADESTSTAYMELSSLRSEDTAVYYCARGPSEVGAILGYVWFDPWGQGTLVTVSSASTKGPSVFPLAPSSKSTSGGTAALGCLVKDYFPEPVTVSWNSGALTSGVHTFPAVLQSSGLYSLSSVVTVPSSSLGTQTYICNVNHKPSNTKVDKKVEPKSCDKTHTCPPCPAPELLGGPDVFLFPPKPKDTLMISRTPEVTCVVVDVSHEDPEVKFNWYVDGVEVHNAKTKPREEQYNSTYRVVSVLTVLHQDWLNGKEYKCKVSNKALPLPEEKTISKAKGQPREPQVYTLPPSRDELTKNQVSLTCLVKGFYPSDIAVEWESNGQPENNYKTTPPVLDSDGSFFLYSKLTVDKSRWQQGNVFSCSVMHEALHNHYTQKSLSLSPGK
light: not shown
notes: also called Clone 13 DLE
B1 was tested, and the “EC50 (read off the curve)” value was roughly 0.8 µg/mL.
